From PubChem BioAssay AID1508623 (National Center for Advancing Translational Sciences (NCATS), 2021)
About 450 (0.94%) of roughly 48,000 compounds were called active. Inconclusive results (about 19%) are left out. Calls come from the whole dose curve; as a rule, active = well fitted inhibition curve with a large enough effect; inconclusive = small, poorly fitted or top-dose-only effect; inactive = no such curve, though single readings can be large or run the other way. This is one part of the list.

Assay: Primary qHTS for Identification of Small Molecule Inhibitors of Huntingtin Promoter Activity; note: nearly all actives have a fitted effect of over 50% in size
Settings: HEK293 HTT promoter firefly luciferase reporter (activity 0% = vehicle and -100% = no light), 24 h; series mostly up to 57.5 µM; activity change, negative = inhibition: at the top concentration
Procedure, shortened: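 Firefly luciferase signal from promoter-reporter HEK293 cells was scaled between vehicle (0%) and zero RLU (-100%). Compounds were tested at final concentrations of up to 57.5 uM over 24 h at 37 degrees C. PTC124 at 50 uM final served as control inhibitor.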

Activity change, negative = inhibition, inactive:
CCOC(=O)c1ccccc1NC(=O)c1sc2nc(-c3ccc(F)cc3)cn2c1C -6.73%, Cc1nnc(NC(=O)CSc2nc3c([nH]c4ccccc43)c(=O)n2-c2cccc(Cl)c2)s1 -13.8%, COc1ccc(-c2nc3ccccc3o2)cc1NC(=O)c1cc(Br)ccc1OC -1.54%, COc1ccc(C)cc1NC(=O)NCCn1nnc2cc(S(=O)(=O)N(C)C)ccc21 -23.7%, Cc1ccc(C(=O)OCc2cc(=O)n3nc(CC(C)C)sc3n2)cc1 -16.7%, COc1ccc(CCNC(=O)c2cnc3sc(N4CCCCCC4)nn3c2=O)cc1 -24.2%, CC(C(=O)O)c1ccc2c(c1)[nH]c1ccc(Cl)cc12 (centres undefined) 0.114%, Cc1ccc2occ(CC(=O)Nc3c(C)cccc3C)c2c1 -20.7%, Cc1cc(C)cc(NCc2nnc3n2CCCCC3)c1 -9.74%, COc1ccc(OCC(=O)N2CCN(C(=O)c3ccc(OC)c(OC)c3)CC2)cc1 2.46%, Cc1cccc(C)c1NC(=O)C(C)N (centres undefined) 6.02%, Cc1cccc(C)c1NC(=O)CCSCCc1ccccn1 -14.8%, COc1cn(CC(=O)Nc2ccc(C)cc2)c(CN2CCCCC2)cc1=O -12.8%, CC(=O)N1CCc2cc(Br)cc(S(=O)(=O)CCC(=O)NCc3ccc(F)cc3)c21 -10.8%, COc1ccccc1CN1CCC(CNC(=O)c2cnn(-c3cccc(Cl)c3)c2C2CCN(C(=O)OC(C)(C)C)CC2)CC1 -6.29%, Cc1cc2c(cc1S(=O)(=O)NCc1ccc(F)cc1)OCC(=O)N2 -23.7%, COc1ccc(NC(=O)CN2C(=O)COc3ccc(S(=O)(=O)NC4CCCC4)cc32)cc1OC 6.43%, CCC(C(=O)NC(=O)NC(C)=O)c1ccccc1 (centres undefined) -4.86%, Cc1ccc(-n2ncc3c(NC4CCCCC4)ncnc32)cc1C -27.3%, O=C(c1ccccc1)n1nc(-c2ccc(Cl)cc2)nc1NCc1ccco1 40.1%, CCOC(=O)c1cc2c(=O)n3ccccc3nc2n(CCOC)c1=NC(=O)c1c(-c2c(F)cccc2Cl)noc1C -34.4%, CSc1ccc(CCNC(=O)Cn2ncc3c([nH]c4ccccc43)c2=O)cc1 -2.36%, COc1ccccc1C(=O)NC(=O)Nc1ccc(-c2cc(C(F)(F)F)nn2-c2ccccc2)cc1 -59.2%, CCc1ccc(C(=O)c2cn(CC(=O)Nc3ccc4c(c3)OCO4)c3ccc(Cl)cc3c2=O)cc1 -14.8%, CCc1ccc(N(CC)C(=O)c2cn(C)c(=O)c3cc(OC)c(OC)cc23)cc1 -0.581%, CCN(CC)c1ccc(NC(=O)C2CCN(S(=O)(=O)c3c(C)noc3/C=C/c3ccccc3F)CC2)c(C)c1 -20.5%, CC(C)(C)C1CCc2c(sc3nc(-c4cc5cc(Cl)ccc5oc4=O)[nH]c(=O)c23)C1 (centres undefined) -11.3%, Cc1ccc(S(=O)(=O)NCCc2nnc3ccc(SCC(=O)Nc4c(C)cc(C)cc4C)nn23)cc1 -7.84%, CCOc1ccc(CCNC(=O)c2c3c(nc4ccccc24)C(=O)N(C2CCCCC2)C3)cc1 -33.8%, CCn1c(CNC(=O)c2ccc(OC)cc2)nnc1SCC(=O)Nc1cccc(C)c1 -12.9%, Cc1ccc(S(=O)(=O)N2CCCc3cc(NC(=O)c4ccc(Cl)cc4)ccc32)cc1 -26.6%, COC(=O)c1c(NC(=O)c2cc(=O)c3cc(C)cc(C)c3o2)sc2c1CCC2 9.59%, COc1ccccc1NC(=O)c1cc2cc3ccc(OC)c(Cl)c3nc2s1 8.4%, Cc1ccc(CC(=O)NCc2nc(-c3ccccc3)no2)cc1 0.771%, O=C(NCCc1ccccc1Cl)c1cc2ccccn2n1 51.1%, CCCCn1c(=O)c2oc3ccccc3c2n(Cc2ccc(C)cc2)c1=O -0.366%, Cc1cc(SCC(=O)Nc2ccc(F)cc2F)nc(=O)[nH]1 -10.3%, COc1ccc(NC(=O)Cn2c(=O)n(-c3ccc(OC)cc3)c(=O)c3sc4ccccc4c32)cc1 5.84%, COc1ccc2c(CNCc3ccco3)c(C(=O)O)n(Cc3cccc(F)c3)c2c1 -16.5%, CCCN(CCC)C(=O)C1CCN(c2cc(C)nc3c(-c4ccc(Cl)cc4)c(C)nn23)CC1 -7.77%, COc1ccc(C(=O)Nc2ccc(-c3nc4ccccc4s3)c(Cl)c2)cc1Cl 6.36%, Cn1c(NCCCO)nc2c1c(=O)n(Cc1cccc(F)c1)c(=O)n2C -3.48%, COc1cc(C(=O)Nc2cc(C)c(O)c(-c3nc4ccccc4s3)c2)cc(OC)c1OC -8.14%, Cc1cc2nc(-c3ccc(OCc4ccccc4F)cc3)cc(C(F)(F)F)n2n1 0.481%, CCCc1nn2c(=O)cc(COC(=O)c3ccc4c(c3)OCO4)nc2s1 -7.79%, CCOC(=O)c1cccc(NC(=O)C2=C(C)C(=O)OC23CCCCC3)c1 -9.83%, Cn1c(NCCN)nc2c1c(=O)n(Cc1ccccc1)c(=O)n2C -20.9%, CCOc1ccc(S(=O)(=O)NCc2cccn2Cc2cccc(C)c2)cc1 -0.849%, CC(C)COc1ccc(C(=O)N(Cc2cccc(F)c2)C2CCS(=O)(=O)C2)cc1 (centres undefined) -6.69%, CCOC(=O)c1cnc2ccc(OCC)cc2c1NCCc1ccc(OC)c(OC)c1 -16.9%, CCCn1c(=N)c(C(=O)NC2CCCCC2)cc2c(=O)n3cc(C)ccc3nc21 1.81%, CCN1CCc2c(sc(-n3cccc3)c2C(CCC(C)C)NC(=O)NCCC(=O)OC)C1 (centres undefined) -25.2%, CCc1cccc(C)c1NC(=O)C(NS(=O)(=O)c1ccc2c(c1)CCC(=O)N2)c1ccccc1 (centres undefined) -14.3%, CCCn1c2ccccc2c2cnn(CC(=O)NCCCOC(C)C)c(=O)c21 -13.4%, Cc1cccc(NC(=O)c2cc3c([nH]c2=O)CC(c2ccccc2)CC3=O)c1 (centres undefined) -1.31%, O=C(Cn1c(=O)n(Cc2ccc(F)cc2)c(=O)c2sc3ccccc3c21)Nc1ccc(F)cc1F 0.107%, COC(=O)CCNC(=O)N1CCN(c2nnc(C)c3c(C)n(-c4ccccc4)nc23)CC1 1.54%, COc1cc(C(=O)NCc2nc(-c3ccc(Cl)cc3)no2)cc(OC)c1OC -8.5%, COc1cccc(CNC(=O)Cn2cccc2C(=O)c2ccccc2)c1 10.8%, Cc1cccc(CN2C(=O)c3ccccc3S(=O)(=O)c3ccc(C(=O)OCC4CCCO4)cc32)c1 (centres undefined) 9.81%, CCc1ccc(CNC(=O)C2COc3ccccc3C2)cc1 (centres undefined) 13.3%, CCOC(=O)c1cc(S(=O)(=O)N2CCN(c3ccccc3OC)CC2)[nH]n1 -10.8%, Cc1ccc(N2CC(NC(=O)C3CCCCC3)CC2=O)cc1 (centres undefined) -20.3%, COc1ccc(NC(=O)CSCc2cc(=O)c3cc(Cl)ccc3[nH]2)cc1 2.33%, CCOc1ccc(C2CC(=O)Nc3c2c(=O)[nH]c2ncnn32)cc1 (centres undefined) -15.6%, CCn1c(CNC(=O)c2ccc(OC)cc2)nnc1SCC(=O)Nc1ccc(F)cc1 -1.03%, CCc1ccc(C(=O)c2cn(CC(=O)Nc3ccc(F)cc3)c3ccc(F)cc3c2=O)cc1 -28.3%, Cc1cccc(C(=O)Nc2cc(-c3ccccc3F)nn2-c2ccccc2)c1 -29.2%, Cc1cccc(C)c1NC(=O)CC12CCCN1CCC2 -5.12%, COc1cc(NS(=O)(=O)c2cc3[nH]c(=O)[nH]c3cc2C)cc(OC)c1OC 5.76%, NC(=O)c1ccc(-c2nc(-c3ccc4c(c3)OCCO4)c(-c3ccccn3)[nH]2)cc1 -1.1%, Cc1ccc2c(c1)-c1c(cnc3cc(-c4ccc(Cl)cc4)nn13)CO2 -0.135%, Cc1ccc(CCNC(=O)c2sc3nc4n(c(=O)c3c2C)CCCC4)cc1 -17.8%, COc1ccccc1CNC(=O)c1ccc2c(c1)nc(C)n2-c1cccc(C)c1 -17.2%, O=C(O)c1ccc(OCCCOc2ccc(C(=O)O)cc2)cc1 11.2%, COc1ccc(NC(=O)C(C)N2Cc3ccccc3C2=O)cc1OC (centres undefined) -7.41%, Cc1ccc(COC(=O)c2[nH]c3c(c2C)C(=O)CC(c2ccc(Cl)cc2)C3)cc1 (centres undefined) 3.39%, CC(C)CC(=O)n1nc(-c2ccco2)nc1NCc1ccc(Cl)cc1 11.6%, Cc1ccc(C)c(CN2C(=O)CSc3ccc(C(=O)NCc4ccccc4)cc32)c1 -19.1%, CCc1cccc(NC(=O)Cn2nc(C)c3sc4ccccc4c3c2=O)c1 -6.26%, COc1ccc(Cn2c(=O)c3ccccc3n3c(-c4ccc(C)cc4)nnc23)cc1 -18.7%, Cc1ccc(OCc2cc(=O)n3cc(C)sc3n2)c(NC(=O)c2ccco2)c1 -8.17%, CC(C)c1cc2c(cc1S(=O)(=O)O)[C@@]1(C)CCC[C@@](C)(C(=O)O)[C@@H]1CC2 11.9%, Cc1ccc(C)c(NC(=O)Cn2cc(S(=O)(=O)NC(C)C)c(S(=O)(=O)NC(C)C)c2)c1 -12.1%, COc1cc(C(=O)Nc2c(C(=O)Nc3ccccc3F)oc3ccccc23)cc(OC)c1OC -25.2%, O=C(Nc1cccc(NC(=O)c2ccc(Br)cc2)c1)c1ccccc1 -5.3%, CCCn1c(NCc2ccccc2F)nc2ccccc21 25.1%, CCC(=O)N1c2ccc(S(=O)(=O)CCC(=O)N3CCN(c4ccc(F)cc4)CC3)cc2CC1C (centres undefined) -31.9%, COc1ccc2c(c1)CC(NC(=O)Nc1ccc(Br)c(C)c1)CO2 (centres undefined) -4.56%, COc1ccc(-c2nnc(SCC(=O)Oc3cc(C)ccc3C)o2)cc1 -11.3%, CCOC(=O)c1cc2c(=O)n3ccccc3nc2n(CC2CCCO2)c1=NC(=O)c1ccc(F)cc1 (centres undefined) -14.1%, O=C(NCc1cccc(F)c1)c1ccc2nc(CCc3ccccc3)oc2c1 3.76%, CCCCCNC(=O)c1ccc2c(=O)n(CCc3ccccc3)c(=O)[nH]c2c1 2.74%, CCOC(=O)N1CCc2c(sc(NCc3cccc(F)c3)c2C(=O)Nc2ccc(OCC)cc2)C1 13.3%, CCN(C(=O)c1cccn(Cc2cccc(Cl)c2)c1=O)c1ccccc1 -13.6%, COc1cc(C(=O)NC2CCN(C)CC2)ccc1Nc1ncc2c(n1)N(C1CCCC1)CCC(=O)N2C(C)C -13.8%, CC(=O)c1ccc(S(=O)(=O)N2CCn3cccc3C2c2ccc(F)c(F)c2)cc1 (centres undefined) -21.5%, CCc1cc(C(=O)NCc2ccc(F)cc2)no1 22.3%, CC(C)Oc1ccc(CNC(=O)c2ccc3c(c2)N(C)C(=O)C2CCCCN32)cc1 (centres undefined) -8.26%
